Here are results for 5 molecules from paper PMC7663100.

Sequences of proteins named here, by UniProt entry; tags and fusion partners are left off. A change or cut given only in a name is not applied to a line headed by its entry.
UniProt Q14145: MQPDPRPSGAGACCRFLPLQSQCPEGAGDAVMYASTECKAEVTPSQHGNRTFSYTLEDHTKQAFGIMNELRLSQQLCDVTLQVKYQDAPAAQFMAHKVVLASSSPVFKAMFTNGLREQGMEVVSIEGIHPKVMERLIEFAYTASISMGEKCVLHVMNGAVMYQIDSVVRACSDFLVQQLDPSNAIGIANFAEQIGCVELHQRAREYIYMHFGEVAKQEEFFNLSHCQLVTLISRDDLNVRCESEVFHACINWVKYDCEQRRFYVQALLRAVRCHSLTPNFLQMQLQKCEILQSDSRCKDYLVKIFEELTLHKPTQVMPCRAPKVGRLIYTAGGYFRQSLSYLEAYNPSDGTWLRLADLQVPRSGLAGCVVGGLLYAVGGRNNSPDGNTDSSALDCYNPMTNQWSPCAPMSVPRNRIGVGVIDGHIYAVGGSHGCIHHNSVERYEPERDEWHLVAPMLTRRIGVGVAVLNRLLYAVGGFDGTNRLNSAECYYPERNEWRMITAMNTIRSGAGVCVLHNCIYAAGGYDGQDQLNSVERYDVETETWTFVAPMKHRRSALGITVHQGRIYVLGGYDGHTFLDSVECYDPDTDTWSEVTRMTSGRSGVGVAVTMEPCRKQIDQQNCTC

For assay [1], the target named is T1, MINERVA^FL (full length human MINERVA, residues Met1–Phe746), recombinant with N-terminal His6-tag (human) (UniProt Q96TA1).
T1 sequence: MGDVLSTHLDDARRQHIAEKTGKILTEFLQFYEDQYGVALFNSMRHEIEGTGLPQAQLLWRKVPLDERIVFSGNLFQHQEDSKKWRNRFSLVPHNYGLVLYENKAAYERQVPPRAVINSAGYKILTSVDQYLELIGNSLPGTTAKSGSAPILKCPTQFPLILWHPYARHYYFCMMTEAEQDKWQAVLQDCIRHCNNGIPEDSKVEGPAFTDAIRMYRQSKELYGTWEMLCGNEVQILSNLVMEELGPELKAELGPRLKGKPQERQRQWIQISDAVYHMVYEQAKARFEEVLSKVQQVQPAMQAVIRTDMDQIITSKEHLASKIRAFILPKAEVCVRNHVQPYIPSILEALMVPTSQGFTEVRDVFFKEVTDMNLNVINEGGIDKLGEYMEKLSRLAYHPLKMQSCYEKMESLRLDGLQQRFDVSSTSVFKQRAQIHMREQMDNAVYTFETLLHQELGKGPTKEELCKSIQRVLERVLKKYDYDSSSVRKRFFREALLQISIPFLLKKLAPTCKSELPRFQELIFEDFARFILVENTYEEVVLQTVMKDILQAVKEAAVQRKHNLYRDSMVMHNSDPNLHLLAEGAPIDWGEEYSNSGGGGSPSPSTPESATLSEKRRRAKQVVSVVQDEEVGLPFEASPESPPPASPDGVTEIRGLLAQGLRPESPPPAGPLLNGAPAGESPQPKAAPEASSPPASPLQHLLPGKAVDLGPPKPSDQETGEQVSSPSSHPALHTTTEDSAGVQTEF
Description: SPR; Biacore T200; MINERVA^FL amine-coupled on CM5 chip; Keap1^321–609 injected at 78.1–10,000 nM, 30 μL/min; 10 mM HEPES, 150 mM NaCl, pH 7.4; 1:1 binding model and steady state affinity model; both purified. In general terms: In SPR one partner is held on a chip, and binding of the other changes the refractive index at the surface.

A further assay has as its target HA-tagged Keap1 (UniProt Q14145). Description: co-IP; HA-Keap1 and FLAG-MINERVA constructs co-expressed in HEK293T; lysis in 1% NP-40, 20 mM Tris-HCl (pH 7.5), 150 mM NaCl; HA-Keap1 immunoprecipitated with anti-HA and protein A beads, western blot. For orientation: In western blotting, separated proteins are transferred to a membrane and probed.
For assay [2], the target named is MINERVA^ΔC (C-terminally truncated human MINERVA, residues Met1–Ser574), recombinant with C-terminal His6-tag (human) (UniProt Q96TA1). The assay is described as follows: SEC-MALS; Superdex 200 Increase 10/300 GL, 20 mM Tris-HCl (pH 8.0), 200 mM NaCl; 2 mg protein injected, 0.5 mL/min; both purified. On the technique in general: In gel filtration, larger molecules generally elute earlier.

Assay [3] concerns the target T2, C-terminal trypsin fragment of MINERVA^ΔC (approximately 50 kDa, beginning at Ser146) (human) (UniProt Q96TA1).
T2 sequence: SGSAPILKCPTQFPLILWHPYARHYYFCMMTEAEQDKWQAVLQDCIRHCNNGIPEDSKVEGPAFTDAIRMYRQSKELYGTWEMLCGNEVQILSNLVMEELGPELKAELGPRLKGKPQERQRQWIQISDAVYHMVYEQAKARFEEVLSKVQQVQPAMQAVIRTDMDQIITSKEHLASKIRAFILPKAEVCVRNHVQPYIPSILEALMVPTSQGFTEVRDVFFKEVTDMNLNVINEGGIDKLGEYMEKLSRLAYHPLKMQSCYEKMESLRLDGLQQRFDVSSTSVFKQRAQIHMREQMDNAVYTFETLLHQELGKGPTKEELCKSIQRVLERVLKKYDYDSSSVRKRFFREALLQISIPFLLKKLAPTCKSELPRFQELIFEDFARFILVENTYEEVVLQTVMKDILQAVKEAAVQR
The assay is described as follows: SEC; trypsin-digested MINERVA^ΔC (5000:1 trypsin ratio, 4 °C, 20 h) on HiLoad 16/600 Superdex200 pg, 20 mM Tris-HCl (pH 8.0), 200 mM NaCl; fractions on SDS-PAGE; both purified.

No constants are given. Whether binding was seen depends on the method and setting. For some assays here: In cells and extracts the contact can be indirect. Some entries that bind do so weakly or less than the wild type. For some assays here: Tags and fused reporters may be left off the sequences shown.

As for “Keap1^321–609 (N- and C-terminally truncated Keap1, residues Ala321–Thr609, containing the Kelch domain) (from UniProt Q14145 321-609) (domain or fragment)”, in assay [1], the binding result is recorded as “binds”.

B1: FLAG-tagged MINERVA^ΔN (residues Thr307–Phe746) (domain or fragment, UniProt Q96TA1 307-746)
chain: TDMDQIITSKEHLASKIRAFILPKAEVCVRNHVQPYIPSILEALMVPTSQGFTEVRDVFFKEVTDMNLNVINEGGIDKLGEYMEKLSRLAYHPLKMQSCYEKMESLRLDGLQQRFDVSSTSVFKQRAQIHMREQMDNAVYTFETLLHQELGKGPTKEELCKSIQRVLERVLKKYDYDSSSVRKRFFREALLQISIPFLLKKLAPTCKSELPRFQELIFEDFARFILVENTYEEVVLQTVMKDILQAVKEAAVQRKHNLYRDSMVMHNSDPNLHLLAEGAPIDWGEEYSNSGGGGSPSPSTPESATLSEKRRRAKQVVSVVQDEEVGLPFEASPESPPPASPDGVTEIRGLLAQGLRPESPPPAGPLLNGAPAGESPQPKAAPEASSPPASPLQHLLPGKAVDLGPPKPSDQETGEQVSSPSSHPALHTTTEDSAGVQTEF
As to B1, the binding result in the assay with HA-tagged Keap1 is “binds”.

B2: FLAG-tagged MINERVA^ΔC (residues Met1–Ser574) (domain or fragment, UniProt Q96TA1 1-574)
chain: MGDVLSTHLDDARRQHIAEKTGKILTEFLQFYEDQYGVALFNSMRHEIEGTGLPQAQLLWRKVPLDERIVFSGNLFQHQEDSKKWRNRFSLVPHNYGLVLYENKAAYERQVPPRAVINSAGYKILTSVDQYLELIGNSLPGTTAKSGSAPILKCPTQFPLILWHPYARHYYFCMMTEAEQDKWQAVLQDCIRHCNNGIPEDSKVEGPAFTDAIRMYRQSKELYGTWEMLCGNEVQILSNLVMEELGPELKAELGPRLKGKPQERQRQWIQISDAVYHMVYEQAKARFEEVLSKVQQVQPAMQAVIRTDMDQIITSKEHLASKIRAFILPKAEVCVRNHVQPYIPSILEALMVPTSQGFTEVRDVFFKEVTDMNLNVINEGGIDKLGEYMEKLSRLAYHPLKMQSCYEKMESLRLDGLQQRFDVSSTSVFKQRAQIHMREQMDNAVYTFETLLHQELGKGPTKEELCKSIQRVLERVLKKYDYDSSSVRKRFFREALLQISIPFLLKKLAPTCKSELPRFQELIFEDFARFILVENTYEEVVLQTVMKDILQAVKEAAVQRKHNLYRDSMVMHNS
In the case of B2, in the assay with HA-tagged Keap1, the binding result was “no binding”.

B3: MINERVA^ΔC (C-terminally truncated human MINERVA, residues Met1–Ser574), recombinant with C-terminal His6-tag (domain or fragment, UniProt Q96TA1 1-574)
chain: MGDVLSTHLDDARRQHIAEKTGKILTEFLQFYEDQYGVALFNSMRHEIEGTGLPQAQLLWRKVPLDERIVFSGNLFQHQEDSKKWRNRFSLVPHNYGLVLYENKAAYERQVPPRAVINSAGYKILTSVDQYLELIGNSLPGTTAKSGSAPILKCPTQFPLILWHPYARHYYFCMMTEAEQDKWQAVLQDCIRHCNNGIPEDSKVEGPAFTDAIRMYRQSKELYGTWEMLCGNEVQILSNLVMEELGPELKAELGPRLKGKPQERQRQWIQISDAVYHMVYEQAKARFEEVLSKVQQVQPAMQAVIRTDMDQIITSKEHLASKIRAFILPKAEVCVRNHVQPYIPSILEALMVPTSQGFTEVRDVFFKEVTDMNLNVINEGGIDKLGEYMEKLSRLAYHPLKMQSCYEKMESLRLDGLQQRFDVSSTSVFKQRAQIHMREQMDNAVYTFETLLHQELGKGPTKEELCKSIQRVLERVLKKYDYDSSSVRKRFFREALLQISIPFLLKKLAPTCKSELPRFQELIFEDFARFILVENTYEEVVLQTVMKDILQAVKEAAVQRKHNLYRDSMVMHNS
Consider B3, for which, in assay [2], the binding entry is “no binding (tested: 2 mg injected)”.

B4: N-terminal trypsin fragment of MINERVA^ΔC (approximately 14 kDa, Gly2–Lys145) (domain or fragment, UniProt Q96TA1 2-145)
chain: GDVLSTHLDDARRQHIAEKTGKILTEFLQFYEDQYGVALFNSMRHEIEGTGLPQAQLLWRKVPLDERIVFSGNLFQHQEDSKKWRNRFSLVPHNYGLVLYENKAAYERQVPPRAVINSAGYKILTSVDQYLELIGNSLPGTTAK
B4: the binding result in assay [3] was “binds”.
